Experimental data reported in patent publication US9200265B2, “Anti-cocaine compositions and treatment” (priority 2006, dated 2015).

Tested on: cocaine-induced lethality
Assay: Rodent model of acute cocaine toxicity (convulsions and lethality) in rats
Details: 1 mg i.v. one minute before 180 mg/kg cocaine i.p.

B1: Ser117Ala (protein, UniProt Q9L9D7 1-574, looked up, variant S117A)
Cocaine esterase: MVDGNYSVASNVMVPMRDGVRLAVDLYRPDADGPVPVLLVRNPYDKFDVFAWSTQSTNWLEFVRDGYAVVIQDTRGLFASEGEFVPHVDDEADAEDTLSWILEQAWCDGNVGMFGVAYLGVTQWQAAVSGVGGLKAIAPSMASADLYRAPWYGPGGALSVEALLGWSALIGTGLITSRSDARPEDAADFVQLAAILNDVAGAASVTPLAEQPLLGRLIPWVIDQVVDHPDNDESWQSISLFERLGGLATPALITAGWYDGFVGESLRTFVAVKDNADARLVVGPWSHSNLTGRNADRKFGIAATYPIQEATTMHKAFFDRHLRGETDALAGVPKVRLFVMGIDEWRDETDWPLPDTAYTPFYLGGSGAANTSTGGGTLSTSISGTESADTYLYDPADPVPSLGGTLLFHNGDNGPADQRPIHDRDDVLCYSTEVLTDPVEVTGTVSARLFVSSSAVDTDFTAKLVDVFPDGRAIALCDGIVRMRYRETLVNPTLIEAGEIYEVAIDMLATSNVFLPGHRIMVQVSSSNFPKYDRNSNTGGVIAREQLEEMCTAVNRIHRGPEHPSHIVLPIIKR
  protective effect against cocaine (convulsions and lethality): no protective effects

B2: Tyr44Phe (protein, UniProt Q9L9D7 1-574, looked up, variant Y44F)
Cocaine esterase: MVDGNYSVASNVMVPMRDGVRLAVDLYRPDADGPVPVLLVRNPFDKFDVFAWSTQSTNWLEFVRDGYAVVIQDTRGLFASEGEFVPHVDDEADAEDTLSWILEQAWCDGNVGMFGVSYLGVTQWQAAVSGVGGLKAIAPSMASADLYRAPWYGPGGALSVEALLGWSALIGTGLITSRSDARPEDAADFVQLAAILNDVAGAASVTPLAEQPLLGRLIPWVIDQVVDHPDNDESWQSISLFERLGGLATPALITAGWYDGFVGESLRTFVAVKDNADARLVVGPWSHSNLTGRNADRKFGIAATYPIQEATTMHKAFFDRHLRGETDALAGVPKVRLFVMGIDEWRDETDWPLPDTAYTPFYLGGSGAANTSTGGGTLSTSISGTESADTYLYDPADPVPSLGGTLLFHNGDNGPADQRPIHDRDDVLCYSTEVLTDPVEVTGTVSARLFVSSSAVDTDFTAKLVDVFPDGRAIALCDGIVRMRYRETLVNPTLIEAGEIYEVAIDMLATSNVFLPGHRIMVQVSSSNFPKYDRNSNTGGVIAREQLEEMCTAVNRIHRGPEHPSHIVLPIIKR
  protective effect against cocaine (convulsions and lethality): no protective effects
